The results in this text go back to paper PMC7177587.

Assay [1] addresses T1, GST protein containing the whole cytosolic C‐terminal region of CADM1 (GST‐CADM1C) (mouse) (UniProt Q8R5M8).
T1 sequence: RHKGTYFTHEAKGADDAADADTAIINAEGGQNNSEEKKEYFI
Nature of the assay: pull-down; fusion tags exchanged: GST-CADM1C with CBD protein fused to MUPP1 PDZ domains, proteins overexpressed in bacteria; only the target purified.

Assay [2] concerns the target T2, GST fused to MUPP1 PDZ domain 3 (UniProt Q8VBX6).
T2 sequence: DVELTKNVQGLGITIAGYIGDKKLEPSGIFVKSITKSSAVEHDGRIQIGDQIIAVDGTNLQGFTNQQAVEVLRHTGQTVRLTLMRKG
Nature of the assay: pull-down; GST-MUPP1-PDZ fusion proteins immobilized on glutathione resin (30 µl) mixed with 1 ml E. coli extract with overexpressed CBD or GlyT2Nrcf1 fusion of the CADM1 motif, 1 hr, room temperature; washed 3x; eluted with 20 mM glutathione (pH 8.0) or SDS sample buffer; 12% gel, Coomassie; only the target purified.

Assay [3] addresses T3, GST fused to MUPP1 PDZ domain 11 (UniProt Q8VBX6).
T3 sequence: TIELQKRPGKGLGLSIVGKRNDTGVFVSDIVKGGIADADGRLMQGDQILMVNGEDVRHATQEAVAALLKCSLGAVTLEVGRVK
The description is as above.

In assay [4] the target is T4, GST fused to MUPP1 PDZ domain 4 (UniProt Q8VBX6).
T4 sequence: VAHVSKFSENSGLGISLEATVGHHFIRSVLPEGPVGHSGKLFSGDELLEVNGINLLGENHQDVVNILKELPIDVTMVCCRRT
The description is as above.

For assay [5], the target named is T5, GST fused to MUPP1 PDZ domain 7 (UniProt Q8VBX6).
T5 sequence: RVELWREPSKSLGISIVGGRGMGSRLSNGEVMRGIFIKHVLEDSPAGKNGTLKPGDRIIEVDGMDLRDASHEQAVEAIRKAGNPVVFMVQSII
The description is as above.

Assay [6] deals with T6, GST fused to MUPP1 PDZ domain 2 (UniProt Q8VBX6).
T6 sequence: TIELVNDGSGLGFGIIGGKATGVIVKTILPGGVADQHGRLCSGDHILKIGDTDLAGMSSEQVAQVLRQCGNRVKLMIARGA
Described as above.

For assay [7], the target named is T7, GST fused to MUPP1 PDZ domain 5 (UniProt Q8VBX6).
T7 sequence: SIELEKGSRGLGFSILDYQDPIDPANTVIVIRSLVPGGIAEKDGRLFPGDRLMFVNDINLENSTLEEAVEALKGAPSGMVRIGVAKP
Described as above.

For assay [8], the target named is T8, GST fused to MUPP1 PDZ domain 1 (UniProt Q8VBX6).
T8 sequence: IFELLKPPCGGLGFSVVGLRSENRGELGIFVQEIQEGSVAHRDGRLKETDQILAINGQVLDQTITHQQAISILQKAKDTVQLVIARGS
The assay is described as above.

Assay [9] has as its target T2, GST fused to MUPP1 PDZ domain 3. Briefly: pull-down; GST-MUPP1 PDZ domain fusions on glutathione resin with Triton X-100 extract of crude mouse brain synaptosomes (25 mM Tris-HCl, 150 mM NaCl, 1 mM EDTA, pH 7.5, 1% Triton X-100), 3 hr at 20°C; eluted with 20 mM glutathione; immunoblot with anti-CADM1; only the target purified.
For assay [10], the target named is T9, GST fused to MUPP1 PDZ domain 6 (UniProt Q8VBX6).
T9 sequence: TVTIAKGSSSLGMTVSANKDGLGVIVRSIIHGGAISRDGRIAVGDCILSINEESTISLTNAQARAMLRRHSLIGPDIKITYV
The assay is described as above.

Assay [11] deals with T4, GST fused to MUPP1 PDZ domain 4. The assay is described as above.
Assay [12] has as its target T6, GST fused to MUPP1 PDZ domain 2. The description is as above.
For assay [13], the target named is T7, GST fused to MUPP1 PDZ domain 5. The assay is described as above.
The target of assay [14] is T8, GST fused to MUPP1 PDZ domain 1. Described as above.

No constants are given. Whether binding was seen depends on the method and setting. In cells and extracts the contact can be indirect. Some results given as binding are weak or reduced against the parent protein; the word gives no strength. Tags and fused reporters may be left off the sequences shown.

B1: CBD protein fused in‐frame with MUPP1 PDZ domain 3 (domain or fragment, UniProt Q8VBX6 378-464)
chain: DVELTKNVQGLGITIAGYIGDKKLEPSGIFVKSITKSSAVEHDGRIQIGDQIIAVDGTNLQGFTNQQAVEVLRHTGQTVRLTLMRKG
As for B1, in assay [1], the binding result is reported as “binds”.

In the case of EKKEYFI [GlyT2Nrcf1‐EKKEYFI fusion protein], the binding result in assay [2] is recorded as “binds”; in assay [3], “binds weakly”; in [4] it was “binds”; in assay [5] it was “binds weakly”; in assay [6], “binds”; in assay [7], “binds”. Moreover, in assay [8], the binding entry is listed as “binds”.

B2: native synaptosomal CADM1 (Triton X‐100 solubilized) (protein, UniProt Q8R5M8 48-456)
chain: QNLFTKDVTVIEGEVATISCQVNKSDDSVIQLLNPNRQTIYFRDFRPLKDSRFQLLNFSSSELKVSLTNVSISDEGRYFCQLYTDPPQESYTTITVLVPPRNLMIDIQKDTAVEGEEIEVNCTAMASKPATTIRWFKGNKELKGKSEVEEWSDMYTVTSQLMLKVHKEDDGVPVICQVEHPAVTGNLQTQRYLEVQYKPQVHIQMTYPLQGLTREGDAFELTCEAIGKPQPVMVTWVRVDDEMPQHAVLSGPNLFINNLNKTDNGTYRCEASNIVGKAHSDYMLYVYDPPTTIPPPTTTTTTTTTTTTTILTIITDTTATTEPAVHDSRAGEEGTIGAVDHAVIGGVVAVVVFAMLCLLIILGRYFARHKGTYFTHEAKGADDAADADTAIINAEGGQNNSEEKKEYFI
B2: the binding entry is reported as “no binding” in [9]; “no binding” in assay [10]; “no binding” in [11]; “binds” in [12]; “no binding” in [13]; “no binding” in [14].

B3: CBD protein fused in‐frame with MUPP1 PDZ domain 2 (domain or fragment, UniProt Q8VBX6 258-338)
chain: TIELVNDGSGLGFGIIGGKATGVIVKTILPGGVADQHGRLCSGDHILKIGDTDLAGMSSEQVAQVLRQCGNRVKLMIARGA
As for B3, the binding result in assay [1] was “binds”.

B4: CBD protein fused in‐frame with MUPP1 PDZ domain 7 (domain or fragment, UniProt Q8VBX6 1139-1231)
chain: RVELWREPSKSLGISIVGGRGMGSRLSNGEVMRGIFIKHVLEDSPAGKNGTLKPGDRIIEVDGMDLRDASHEQAVEAIRKAGNPVVFMVQSII
As to B4, the binding result in [1] was “binds weakly”.

B5: CBD protein fused in‐frame with MUPP1 PDZ domain 11 (domain or fragment, UniProt Q8VBX6 1710-1792)
chain: TIELQKRPGKGLGLSIVGKRNDTGVFVSDIVKGGIADADGRLMQGDQILMVNGEDVRHATQEAVAALLKCSLGAVTLEVGRVK
Regarding B5, the binding entry in [1] is “binds weakly”.

B6: CBD protein fused in‐frame with MUPP1 PDZ domain 1 (domain or fragment, UniProt Q8VBX6 138-225)
chain: IFELLKPPCGGLGFSVVGLRSENRGELGIFVQEIQEGSVAHRDGRLKETDQILAINGQVLDQTITHQQAISILQKAKDTVQLVIARGS
As for B6, the binding entry in assay [1] is given as “binds”.

For EKKEYFI [CBD‐EKKEYFI fusion protein containing the CADM1 PDZ motif (EKKEYFI)], the binding entry in assay [2] was “binds”; in [3], “binds weakly”; in [4], “binds”; in assay [5], “binds weakly”; in [6], “binds”; in assay [7], “binds”. Also, the binding result in [8] was “binds”.

B7: CBD protein fused in‐frame with MUPP1 PDZ domain 5 (domain or fragment, UniProt Q8VBX6 693-779)
chain: SIELEKGSRGLGFSILDYQDPIDPANTVIVIRSLVPGGIAEKDGRLFPGDRLMFVNDINLENSTLEEAVEALKGAPSGMVRIGVAKP
As to B7, in [1], the binding entry is “binds”.

B8: CBD protein fused in‐frame with MUPP1 PDZ domain 4 (domain or fragment, UniProt Q8VBX6 546-627)
chain: VAHVSKFSENSGLGISLEATVGHHFIRSVLPEGPVGHSGKLFSGDELLEVNGINLLGENHQDVVNILKELPIDVTMVCCRRT
As for B8, the binding result in assay [1] is reported as “binds”.
